# Assay results as given in the supplement of paper PMC11417369.
# ± gives the standard deviation of the averaged measurements. Some of the results follow.
# Tested on: PfAP2-EXP AP2 domain (GST-tagged)
# Assay: gcPBM binding intensity (ln(normalized median fluorescence intensity)); higher = stronger DNA binding
# Method in brief: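 After 1 h on an Agilent 4 × 180k array of primer-extended double-stranded 36-bp intergenic genomic probes and negative controls, bound GST-tagged P. falciparum DNA-binding domains were detected with Alexa488 anti-GST antibody and scanned at 488 nm. The domains had been expressed in E. coli, and binding took place in 1× PBS with 1% milk, 0.2 mg/ml BSA, 0.5% salmon testes DNA and 0.03% Triton X-100. Binding intensity is the highest Masliner-normalised natural-log median intensity across replicate spots of either probe orientation.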
row,Sequence,gcPBM binding intensity (ln)
1,AACATTTATAAATATTGTACATATAGATTTATATAT [XGTACX_site2662],8.34 ± 0.34
2,TATATATATATATACACACACACCCTAAAAATATAT [CACACA_site1611],10 ± 0.45
3,AAAATTACTATATGAACACACATGATTAGATATATG [CACACA_site3083],8.46 ± 0.38
4,TGAAAGAATTAATTTTGTACATATAAAAATTTTATT [XGTACX_site8500],8.26 ± 0.41
5,TTTTTATTTTTAAAGGCACACACATTTTTATTTTTA [CACACA_site8624],8.41 ± 0.31
6,TATTTGTGCCAAAAATGAAAAAGTTTGTATAAAACC [CACACA_negctrl_site1406],8.65 ± 0.3
7,AAATGAAATTTGTATACACACAAATATATTTATATA [CACACA_site6525],8.26 ± 0.4
8,AATAAATAAATAATATAATGAAATTATAAAATGTGG [TGCATGCA_negctrl_site385],8.44 ± 0.32
9,TATTAAAAAAATGTATGTACATATATAAATTTTTTT [XGTACX_site1094],8.59 ± 0.52
10,AATGATCATAAATACACACACACAAAAAAAAAAAAA [CACACA_site6072],8.31 ± 0.52
11,AAAGTAAAAGAAAGCACACACACATGTATATATGTA [CACACA_site3857],8.73 ± 0.31
12,TTTCTCCCATTTTTTAGTACACAAAATATATATGTA [XGTACX_site7218],8.82 ± 0.36
13,GATGGATTTATTTAAAGTACATATTTAAAAAACTGT [XGTACX_site7567],8.24 ± 0.25
14,AAAAAAAAAAAATATACACACACATATATATATATA [CACACA_site9123],10 ± 0.45
15,AACAACAATTTCGTCATACACACATTCAGAATATAT [CACACA_site2371],8.62 ± 0.47
16,CAGGCGTGAAATATACGTACACACATTATTTATATT [XGTACX_site5337],8.52 ± 0.33
17,ATATAAATTATTTACACACAAACATTTATACTTTTA [CACACA_site3448],8.51 ± 0.4
18,TTTTGTTACGGCAAGGAAGTTAAGCATAAATGAATG [GTGCAC_negctrl_site173],8.79 ± 0.5
19,AAGAAAAAAAATATATATGTATATATTATTTTAACA [TGCATGCA_negctrl_site534],8.14 ± 0.33
20,ATATTTTTTGCTATTACACACAAGGGATTATTATTT [CACACA_site7776],8.75 ± 0.44
21,ATGTTAATAACTTGTGGTACTGTTATAATTTAGTAA [XGTACX_site2114],8.4 ± 0.42
22,TAATAATAGTCTAATACATGCATCGATAACGGAACT [TGCATGCA_site98],8.95 ± 0.34

row,Sequence,gcPBM binding intensity (ln)
1,TATATACACATATATACACACACATATATATATATA [CACACA_site9127],9.88 ± 0.45
2,ATATAAGTGTATCTAACACACAAATATGTAAAAATG [CACACA_site7006],8.56 ± 0.37
3,ATATATCTACTGTGTTGTACTGTTAATATTTGAATA [XGTACX_site1931],8.68 ± 0.43
4,ATAGAATAAATTTTGTCATTTATTCCTTATATATAA [GTGCAC_negctrl_site227],8.47 ± 0.36
5,TAAAAATAGGAATACGCACACGATGATTAATTTATA [CACACA_site1835],8.29 ± 0.45
6,AATTATATAACAAATTGTACGAATGAAAATATTATT [XGTACX_site4237],8.68 ± 0.47
7,TTCCTTTTTTTTTATTGTACAAAAATATCAAAAAGG [XGTACX_site8505],8.44 ± 0.42
8,ATTTTTTTTTTTTTTTTGGGGGGGTATACTTTTAAA [CACACA_negctrl_site1020],11.2 ± 0.18
9,TTTTTAATTTTATATACACACATAAAATATATGAAG [CACACA_site3145],8.32 ± 0.36
10,TTTATATATATTTATACACACAAACATAATACTACT [CACACA_site5161],8.55 ± 0.4
11,TATAATGAGGATGATAGTACGTATTAGTATAAAAAA [XGTACX_site6623],8.8 ± 0.4
12,AATTTATAAGAATAAAGTACTAAAGATACAACTTTA [XGTACX_site7153],8.03 ± 0.25
13,ATAATACCCAAGCACACACACACACCGATATATATA [CACACA_site8344],8.82 ± 0.52
14,TGTTATTATAACATTTTTTTCAAAATAGCTTTAGAA [CACACA_negctrl_site266],8.09 ± 0.52
15,ATTAAAGGAAGCAAAACATGCAACAGCAATATTGCA [TGCATGCA_site452],8.79 ± 0.33
16,ATATATTGGAGCACAACACACACAAGTATATATATG [CACACA_site8435],8.82 ± 0.6
17,AAAAAAAAAAAAAAAACATGCACAAATTATAAGTGA [TGCATGCA_site378],8.82 ± 0.47
18,ACTACATAATACTATTCACACATTTTTTTTTTTTTT [CACACA_site5794],8.74 ± 0.43
19,AAAAAAAAATACAAAATAGCAATAAATACACAAACG [GTGCAC_negctrl_site707],8.85 ± 0.51
20,AAAAAAAAAAAAAACACACAGAACAATATATAAATA [CACACA_site982],8.55 ± 0.56
21,AAAAAATAGAATATAAAAATAAAGGAATTAAATTAA [XGTACX_negctrl_site420],8.39 ± 0.35
22,AATTTTTTTTTAATCATGCACACTGTTAAAAGAATA [CACACA_site1240],8.47 ± 0.16
